The list shows a part of the results. Where only a bound is given, the exact number is not on record here.

First the molecules themselves.
B1: PhoQ; a variant is named by its letters at X, in order, P23837 (parent)
chain: MKKLLRLFFPLSLRVRFLLATAAVVLVLSLAYGMVALIGYSVSFDKTTFRLLRGESNLFYTLAKWENNKLHVELPENIDKQSPTMTLIYDENGQLLWAQRDVPWLMKMIQPDWLKSNGFHEIEADVNDTSLLLSGDHSIQQQLQEVREDDDDAEMTHSVAVNVYPATSRMPKLTIVVVDTIPVELKSSYMVWSWFIYVLSANLLLVIPLLWVAAWWSLRPIEALAKEVRELEEHNRELLNPATTRELTSLVRNLNRLLKSERERYDKYRTTLTDLTHSLKTPLXXLQXXLRSLRSEKMSVSDAEPVMLEQISRISQQIGYYLHRASMRGGTLLSRELHPVAPLLDNLTSALNKVYQRKGVNISLDISPEISFVGEQNDFVEVMGNVLDNACKYCLEFVEISARQTDEHLYIVVEDDGPGIPLSKREVIFDRGQRVDTLRPGQGVGLAVAREITEQYEGKIVAGESMLGGARMEVIFGRQHSAPKDE

Variants of B1 are the subject of this experiment. Description: enrichment ratio after two sorts for PhoP signalling (ratio (wild type AVST 3.29)); higher = more functional. The note with it: with PhoP (E. coli).
As for AIQK, the enrichment ratio was not above 0.25.
On to FAYN, for which the enrichment ratio was not above 0.25.
Under STQV stands 2.63.
With GDDC, the enrichment ratio is not above 0.25.
As for VPWG, the enrichment ratio is not above 0.25.
As to NHDN, the enrichment ratio was not above 0.25.
As to ICKG, the enrichment ratio is not above 0.25.
As for YFHE, the enrichment ratio is not above 0.25.
Next, MLPG: not above 0.25.
Under DLKD stands not above 0.25.
Regarding LMVN, the enrichment ratio was not above 0.25.
Under SKNH stands not above 0.25; under DQLW, not above 0.25; under MIVA, 0.385.
On to LGRL, for which the enrichment ratio is not above 0.25.
As to TYIS, the enrichment ratio was not above 0.25.
For APPY, the enrichment ratio is not above 0.25.
Under QVNA stands not above 0.25; under PKNY, not above 0.25; under YESW, not above 0.25.
Next, DKNS: not above 0.25; DGAS: not above 0.25; VISL: 0.654.
Next, MRLC: not above 0.25; HYDK: not above 0.25; MCPE: not above 0.25.
For PMVP, the enrichment ratio is not above 0.25.
Next, WHLA: not above 0.25; LFST: not above 0.25; RMVQ: not above 0.25.
Turning to SMYG, the enrichment ratio is not above 0.25.
In the case of LFPI, the enrichment ratio was not above 0.25.
Under FTGT stands not above 0.25.
As for QSGH, the enrichment ratio turned out to be 5.99.
Under EVAL stands not above 0.25.
Take IPCM: the enrichment ratio was not above 0.25.
In the case of FNLR, the enrichment ratio is not above 0.25.
In the case of TIKS, the enrichment ratio was not above 0.25.
For the variant IHES, the enrichment ratio was not above 0.25.
Under KEHW stands not above 0.25.
Under DLDW stands not above 0.25; under QASH, 4.83; under KFWV, not above 0.25.
For TEAP, the enrichment ratio is not above 0.25.
Under FICQ stands not above 0.25; under KVRN, not above 0.25.
Under EGQY stands not above 0.25; under RNCA, not above 0.25; under TVWV, not above 0.25.
Under NWFP stands not above 0.25; under KFNP, not above 0.25; under YWWV, not above 0.25.
WRSN: the enrichment ratio is not above 0.25.
In the case of NLAM, the enrichment ratio was not above 0.25.
Next, PGNK: not above 0.25.
Under MVFN stands 9.27; under IWWR, not above 0.25; under YYVS, not above 0.25.
With APDH, the enrichment ratio was not above 0.25.
Under TSRD stands not above 0.25; under TLDY, not above 0.25.
For the variant WAKV, the enrichment ratio was not above 0.25.
Next, QPPW: not above 0.25; ICAN: not above 0.25; FMFW: not above 0.25.
Consider TTGK, for which the enrichment ratio is not above 0.25.
As for HRRM, the enrichment ratio is not above 0.25.
On to VFKA, for which the enrichment ratio was not above 0.25.
Next, LMPM: not above 0.25; SNCN: 7.42; RLEQ: not above 0.25.
As to DVFM, the enrichment ratio was not above 0.25.
For the variant DMFI, the enrichment ratio was not above 0.25.
With ENRS, the enrichment ratio is not above 0.25.
Under DHTC stands not above 0.25; under PPVV, not above 0.25.
Regarding HIFH, the enrichment ratio is not above 0.25.
Under WPWD stands not above 0.25; under WVLT, not above 0.25.
Next, DQDD: not above 0.25; GHFY: not above 0.25; YMWP: not above 0.25.
Under VMND stands not above 0.25; under HKIF, not above 0.25; under QFET, not above 0.25.
Consider PNHT, for which the enrichment ratio was not above 0.25.
Next, FADC: not above 0.25.
As for PGAE, the enrichment ratio is not above 0.25.
Under TCLF stands 3.32; under QDQR, not above 0.25.
WTDP: the enrichment ratio was not above 0.25.
Under DAVV stands not above 0.25; under SKST, 8.48; under LGWY, not above 0.25.
In the case of TKHA, the enrichment ratio was not above 0.25.
Under VEQF stands not above 0.25.
Turning to MCQR, the enrichment ratio is not above 0.25.
With MNEG, the enrichment ratio was not above 0.25.
On to NYKF, for which the enrichment ratio is not above 0.25.
Turning to EDQA, the enrichment ratio is not above 0.25.
With ISVP, the enrichment ratio was not above 0.25.
Next, VHIN: not above 0.25; NWLL: not above 0.25.
As to PYRM, the enrichment ratio was not above 0.25.
As to NSQN, the enrichment ratio was not above 0.25.
Consider DMGA, for which the enrichment ratio is 2.33.
Take ASLT: the enrichment ratio amounted to 11.9.
As for VEAS, the enrichment ratio was determined as 3.57.
In the case of LSED, the enrichment ratio was not above 0.25.
YGHG: the enrichment ratio is not above 0.25.
Under SNNR stands not above 0.25; under FSCF, not above 0.25.
Under YTGE stands not above 0.25; under DTHF, not above 0.25.
Next, EQWR: not above 0.25.
Consider FQVC, for which the enrichment ratio was not above 0.25.
On to PNDL, for which the enrichment ratio is not above 0.25.
As to WHNL, the enrichment ratio was not above 0.25.
Next, VWWV: not above 0.25; PCYR: not above 0.25.
Under WLHQ stands not above 0.25; under FPSF, not above 0.25; under TLEK, not above 0.25.
Turning to IKIW, the enrichment ratio is not above 0.25.
Turning to THCV, the enrichment ratio worked out at 4.19.
Next, DRIL: not above 0.25; LHEP: 0.81; FFNN: not above 0.25.
Regarding DWTL, the enrichment ratio is not above 0.25.
Next, FLNW: not above 0.25; MNTR: not above 0.25.
Under YCPC stands not above 0.25; under YWYP, not above 0.25; under ENCF, not above 0.25.
YEMW: the enrichment ratio is not above 0.25.
Under YLYP stands not above 0.25; under HSAC, not above 0.25.
Next, GKHE: not above 0.25; HWWA: not above 0.25.
As to RYGA, the enrichment ratio was not above 0.25.
Consider NMIL, for which the enrichment ratio was not above 0.25.
Under MPGH stands not above 0.25; under WPQP, not above 0.25.
Take KVNW: the enrichment ratio was not above 0.25.
Take KFLW: the enrichment ratio is not above 0.25.
For the variant KERI, the enrichment ratio is not above 0.25.
As to YKQS, the enrichment ratio is not above 0.25.
In the case of AFHV, the enrichment ratio is not above 0.25.
Regarding KLEW, the enrichment ratio was not above 0.25.
Under DAIY stands not above 0.25.
Under PMHQ stands not above 0.25.
Under KRQS stands not above 0.25; under PVYG, not above 0.25.
On to RNMV, for which the enrichment ratio was not above 0.25.
Take FMMK: the enrichment ratio is not above 0.25.
For FLDK, the enrichment ratio is not above 0.25.
In the case of ITEV, the enrichment ratio is not above 0.25.
Next, AMSS: 9.96; KGYF: not above 0.25; LNSA: not above 0.25.
Next, KCKS: not above 0.25; QPDM: not above 0.25; SDRK: not above 0.25.
Next, SIIK: not above 0.25.
On to GSPV, for which the enrichment ratio was not above 0.25.
Next, YAIF: not above 0.25; KTGY: not above 0.25.
For QSAV, the enrichment ratio was determined as 12.1.
Next, MKHQ: not above 0.25; RPMR: not above 0.25; YDAG: 0.819.
For NRKC, the enrichment ratio is not above 0.25.
With HQIW, the enrichment ratio was not above 0.25.
Next, IDTC: not above 0.25; NQMP: not above 0.25; GQPN: not above 0.25.
Next, PQEY: not above 0.25; WSEL: not above 0.25; MKCW: not above 0.25.
Next, STRW: not above 0.25; AIGN: 6.31; FMKA: 1.15.
As to MAYS, the enrichment ratio is 8.34.
For the variant RRCD, the enrichment ratio was not above 0.25.
As for KQAR, the enrichment ratio is not above 0.25.
Next, HMAF: not above 0.25; EGKT: not above 0.25; INEP: not above 0.25.
Under ECGR stands not above 0.25.
On to RVMN, for which the enrichment ratio is not above 0.25.
Next, SMWG: not above 0.25; NCCN: not above 0.25; NFIV: not above 0.25.
In the case of SSSH, the enrichment ratio came out at 10.4.
Next, WHIH: not above 0.25.
Turning to YFVL, the enrichment ratio is not above 0.25.
Next, GRMI: not above 0.25; LRCL: not above 0.25.
Under GHGQ stands not above 0.25; under FMCW, not above 0.25.
As to SACS, the enrichment ratio amounted to 10.7.
Under DLGQ stands not above 0.25; under FQRP, not above 0.25; under RRVH, not above 0.25.
WHDF: the enrichment ratio is not above 0.25.
Under YMQC stands not above 0.25; under THFH, not above 0.25.
Turning to YCIH, the enrichment ratio amounted to 0.311.
Next, EIYI: not above 0.25; WRHW: not above 0.25.
For YEGA, the enrichment ratio is not above 0.25.
As to GPMH, the enrichment ratio is not above 0.25.
Next, AAPH: not above 0.25; YCYL: not above 0.25.
On to PIWP, for which the enrichment ratio is not above 0.25.
Consider PNGG, for which the enrichment ratio was not above 0.25.
Next, QKGP: not above 0.25; KATS: not above 0.25.
Under VWKD stands not above 0.25; under EYES, not above 0.25.
As for WMAE, the enrichment ratio was not above 0.25.
With IFPW, the enrichment ratio is not above 0.25.
Next, VELW: not above 0.25; FDEV: not above 0.25.
Under YPGG stands not above 0.25; under QVMT, not above 0.25.
As for MHVP, the enrichment ratio is not above 0.25.
Next, ASEW: not above 0.25.
For GAFY, the enrichment ratio is not above 0.25.
YWQR: the enrichment ratio was not above 0.25.
Take LYSC: the enrichment ratio was not above 0.25.
For the variant SMTK, the enrichment ratio was found to be 0.437.
For WVSV, the enrichment ratio is not above 0.25.
Next, IDFI: not above 0.25; AHYA: not above 0.25; LAFE: not above 0.25.
Under PMLM stands not above 0.25; under PHWW, not above 0.25.
Next, HWIK: not above 0.25; EDAY: not above 0.25; RPQG: not above 0.25.
RLRL: the enrichment ratio is not above 0.25.
Under IVFY stands not above 0.25; under VKVG, not above 0.25.
On to RECF, for which the enrichment ratio was not above 0.25.
Next, IIMV: not above 0.25; IAKK: not above 0.25; EVNH: not above 0.25.
Next, YMRY: not above 0.25.
Under AQTP stands not above 0.25.
Turning to TKWS, the enrichment ratio is not above 0.25.
Next, VFMS: not above 0.25.
Next, MRRP: not above 0.25; SQFP: not above 0.25; VWYD: not above 0.25.
For PYHC, the enrichment ratio is not above 0.25.
FCLF: the enrichment ratio came out at 2.32.
EFVY: the enrichment ratio was not above 0.25.
With PMMI, the enrichment ratio was not above 0.25.
In the case of ETQA, the enrichment ratio was not above 0.25.
As to YRGI, the enrichment ratio was not above 0.25.
Regarding YHQR, the enrichment ratio is not above 0.25.
With KMGV, the enrichment ratio was not above 0.25.
Regarding PGQY, the enrichment ratio was not above 0.25.
Under IDHN stands not above 0.25; under DLEP, not above 0.25; under FYSV, not above 0.25.
Under KTYL stands not above 0.25; under GRIQ, not above 0.25; under ECKG, not above 0.25.
Next, SRHI: not above 0.25; LVYP: not above 0.25.
Take PKCL: the enrichment ratio is not above 0.25.
Next, MFNH: not above 0.25.
Next, QLHQ: not above 0.25; NAFG: not above 0.25; IVLS: not above 0.25.
Consider YVIR, for which the enrichment ratio is not above 0.25.
Consider PLRR, for which the enrichment ratio is not above 0.25.
With GIRK, the enrichment ratio is not above 0.25.
As to YREC, the enrichment ratio is not above 0.25.
Next, HPVR: not above 0.25; QVHG: not above 0.25.
With REKA, the enrichment ratio was not above 0.25.
With YELY, the enrichment ratio amounted to 0.302.
As to NCPH, the enrichment ratio was not above 0.25.
For the variant FCWV, the enrichment ratio is not above 0.25.
With AFTT, the enrichment ratio is not above 0.25.
On to RYKA, for which the enrichment ratio was not above 0.25.
Next, SNKG: not above 0.25; PRLF: not above 0.25; TWGT: not above 0.25.
Next, QATS: not above 0.25; VKSG: not above 0.25; MLIM: not above 0.25.
For the variant HHKD, the enrichment ratio was not above 0.25.
Take GYDK: the enrichment ratio is not above 0.25.
Under RDAH stands not above 0.25; under NFNA, not above 0.25.
Under HYDS stands not above 0.25.
Next, HPGF: not above 0.25.
Consider QMAD, for which the enrichment ratio is not above 0.25.
Under KVDD stands not above 0.25; under ILAM, not above 0.25; under GRCA, not above 0.25.
Under ITAW stands not above 0.25.

(Values after a collection of fitness landscapes (doi:10.1126/science.1257360).)
